Hit rate of the full screen: of about 52,000 compounds, about 1,700 (3.3%) were called active. Rule as the data show it: active = survival mostly below about 52% (no sharp cut-off); inactive = mostly above about 56%. The list shows a part of the results.
tested on: Wild type; assay: growth inhibition of S. aureus wild type versus tarO mutant, primary screen, teichoic acid synthesis inhibitors, RN4220, OD600 (AID 463173); details: S. aureus RN4220 wild type/DeltatarO growth, OD600, 18 h, hits give low values, screened at 18.75 µg/mL (by protocol)

| Compound | survival |
| --- | --- |
| COc1ccc(-c2noc(CSc3nnc(Cc4ccccc4)n3-c3ccccc3)n2)cc1OC | inactive: 109% |
| Nc1cccc(C(=O)NC23CC4CC(CC(C4)C2)C3)c1 | inactive: 95% |
| CC1(C)CC(NC(=O)CCc2ccccc2)CC(C)(C)N1 | inactive: 112% |
| O=C(NCCc1csc(-c2ccc(F)cc2)n1)c1cccs1 | inactive: 59% |
| O=C(NC1CC(=O)N(c2ccc3c(c2)OCCO3)C1)c1c(F)cccc1Cl (stereo unspecified) | inactive: 120% |
| Cc1ccc2c(c1)c(=O)c(C(=O)c1ccc3c(c1)OCO3)cn2Cc1cccc(F)c1 | inactive: 87% |
| COCCNc1oc(-c2ccc(COc3ccc(OC)cc3)o2)nc1C#N | inactive: 90% |
| Cc1ccc(-c2nn(-c3ccc(F)cc3F)c3c2cnc2c(F)cccc23)cc1 | inactive: 89% |
| Cc1ccc(NC(=O)CSc2nc3ccccc3c3nc(CCc4c(C)n[nH]c4C)nn23)c(C)c1 | inactive: 78% |
| Cc1nc2c(C(=O)O)cnn2c(C)c1Cc1ccccc1 | inactive: 68% |
| Cc1ccccc1C(=O)Nc1nc2nc(C)c(C)c(=O)n2[nH]1 | inactive: 89% |
| CCCc1nn2c(=O)cc(COC(=O)c3ccc(NC(=O)CCc4ccccc4)cc3)nc2s1 | inactive: 69% |
| CCc1ccc2oc(-c3cccc(NC(=O)c4cc5ccccc5o4)c3)nc2c1 | inactive: 28% |
| Cc1ccc(C(=O)CSc2ncc3c(n2)-c2ccccc2N(Cc2ccc(Cl)cc2)S3(=O)=O)cc1 | inactive: 82% |
| Cc1ccc2nc(N3CCN(c4cccc(Cl)c4)CC3)c3nnnn3c2c1 | inactive: 72% |
| CCCCOc1ccc(CNC(=O)c2ccc(-c3nc(CN4CCc5ccccc54)c(C)o3)cc2)cc1 | inactive: 73% |
| COc1cccc(NC(=O)c2sc3nc4n(c(=O)c3c2C)CCC4)c1 | inactive: 81% |
| COc1ccc2[nH]c(=O)c(CN(Cc3ccco3)C(c3nnnn3Cc3ccccc3)C(C)C)cc2c1 (stereo unspecified) | inactive: 111% |
| CC1=C(C(N)=O)C(c2ccc(C)cc2)n2nc(SCc3ccccc3F)nc2N1 (stereo unspecified) | inactive: 73% |
| CC(=O)N1N=C(N)SC1(C)c1ccccc1 (stereo unspecified) | inactive: 101% |
| CCOC(=O)c1cccc(NC(=O)c2cc(S(=O)(=O)N3CCCC(C)C3)cn2C)c1 (stereo unspecified) | inactive: 75% |
| CCN(CC)c1ccc(C=C2C(=O)OC3(CCCC3)OC2=O)cc1 | inactive: 105% |
| CCN(CC)C(=O)N1CCc2cc(OC)c(OC)cc2C1c1cc2cc(C)ccc2n(C(=O)N(CC)CC)c1=O (stereo unspecified) | inactive: 99% |

| Compound | survival |
| --- | --- |
| CC(=O)Nc1ccccc1-c1nc2ccccc2n(CC(=O)c2ccc(Br)cc2)c1=O | inactive: 85% |
| Cc1cc(C)cc(NC2=C(c3ccccc3)C(=O)c3ccccc32)c1 | inactive: 39% |
| COc1cccc(CNC(=O)CSc2nnc(C)c3c(C)n(-c4ccccc4)nc23)c1OC | inactive: 75% |
| COc1cc(C2C(=O)N(C3CCCCC3)CC(=O)N2CCC2=CCCCC2)ccc1OC(C)C (stereo unspecified) | inactive: 135% |
| CCOC(=O)C1CCCN(C(=O)Cn2ncc3c(C)n(Cc4ccccc4F)c(C)c3c2=O)C1 (stereo unspecified) | inactive: 122% |
| COc1cccc(-n2cc(C(=O)Nc3cc(OC)c(OC)c(OC)c3)c3ccccc3c2=O)c1 | inactive: 114% |
| COC(=O)CNC(c1ccccc1)c1cc(Br)ccc1NC(=O)c1ccccc1 (stereo unspecified) | inactive: 62% |
| COc1ccc(-c2cc(C(F)(F)F)nc(SCC(=O)N3CCCCC3C)n2)cc1OC (stereo unspecified) | inactive: 69% |
| CCc1cccc(C)c1NC(=O)C1CCN(c2nn3c(=O)cc(C)nc3s2)CC1 | inactive: 118% |
| CCN1CCN(c2ccc(NC(=O)c3cccc(Cl)c3Cl)cc2)CC1 | inactive: 111% |
| C/C(=N\NC(N)=O)C1CC(c2ccccc2)C(=O)O1 (stereo unspecified) | inactive: 83% |
| Cc1ccc2oc(=O)c3cc(C(=O)Nc4ccccc4C(N)=O)sc3c2c1 | inactive: 88% |
| O=C(NCc1ccccc1)C1CCCN(c2ncccn2)C1 (stereo unspecified) | inactive: 104% |
| Cc1onc(-c2c(F)cccc2Cl)c1C(=O)Nc1ccc(OC(C)C)cc1 | inactive: 76% |
| COc1ccc(S(=O)(=O)c2c(O)c3ccc(C(=O)NCc4ccccc4)cc3[nH]c2=O)cc1 | inactive: 94% |
| CCOCCCn1c(=N)c(C(=O)NCc2cccnc2)cc2c(=O)n3cc(C)ccc3nc21 | inactive: 75% |
| CCOC(=O)c1cnc2c(ccc3ccccc32)c1Nc1ccc(OCC)cc1 | active: -2% |
| O=C1CCCc2cc(S(=O)(=O)NCC3CCC(C(=O)NCc4ccccc4Cl)CC3)ccc2N1 (stereo unspecified) | inactive: 68% |
| COc1ccc(CCNC(=O)c2cc3c(s2)-c2ccccc2OC3)cc1OC | inactive: 83% |
| Fc1ccc(N2CCN(c3ncnc4c3nc3n4CCCCC3)CC2)cc1 | inactive: 55% |
| Cc1cccc(NC(=O)Nc2ccc(Br)cc2)n1 | inactive: 134% |
| COc1ccccc1N1CCN(C(=O)c2c(C)oc3ncn(CC(C)C)c(=O)c23)CC1 | inactive: 60% |
| O=C(Cn1ccc2ccccc2c1=O)NCCC(=O)Nc1ccc(F)cc1F | inactive: 64% |

| Compound | survival |
| --- | --- |
| COCCOC(=O)C1=C(C)NC(=S)NC1c1ccc(C)c(OC)c1 (stereo unspecified) | inactive: 97% |
| CCOc1ccc(Nc2cc(C)nc3nc(Cc4ccc(Cl)cc4)nn23)cc1 | inactive: 83% |
| Cc1ccc(-n2nc3c(N4CCC(C(=O)NC(C)c5ccccc5)CC4)nnc(C)c3c2C)cc1 (stereo unspecified) | inactive: 153% |
| NC(=S)Cc1c[nH]c2ccccc12 | inactive: 99% |
| COc1ccc(CCNC(=O)Cn2c(=O)c3cccn3c3ccc(F)cc32)c(OC)c1 | inactive: 88% |
| O=C(Nc1ccc2c(c1)oc1ccccc12)C(F)(F)F | inactive: 103% |
| CC(=O)Nc1ccc(Nc2nc3c(S(=O)(=O)c4cccc(Cl)c4)nnn3c3ccsc23)cc1 | inactive: 89% |
| Cc1ccc(C)c(-c2nnc(NC(=O)c3ccc4c(c3)OCCO4)o2)c1 | inactive: 80% |
| CCN(CC)Cc1c(NC(=O)c2ccc(OC)cc2)sc2c1CCCC2 | inactive: 66% |
| CCCC(=O)N1CCCC(c2nc(-c3cccs3)no2)C1 (stereo unspecified) | inactive: 118% |
| Cc1ccc(NC(=O)CN2C(=O)CCc3cc(S(=O)(=O)N4CCCCC4)ccc32)cc1C | inactive: 118% |
| Cc1cc(C)cc(-n2c(C)nc3cc(C(=O)NCc4ccccc4Cl)ccc32)c1 | inactive: 99% |
| COc1ccc(CCNC(=O)c2cnc3sc(N4CCCCC4)nn3c2=O)cc1OC | inactive: 77% |
| Cc1oc2ncn(CC(C)C)c(=O)c2c1C(=O)NCCCN1CCC(C)CC1 | inactive: 111% |
| O=C(COc1ccccc1F)OCc1cc(=O)n2nc(C3CC3)sc2n1 | inactive: 66% |
| COc1ccc(-c2cc(C(=O)Oc3cccc(C)c3)c3cc(C)ccc3n2)cc1 | inactive: 19% |
| Cc1ccc2c(c1)N(CC(=O)N1CCCCC1C)C(=O)CO2 (stereo unspecified) | inactive: 98% |
| CCOC(=O)c1c(N)sc2c(OC)c(Br)ccc12 | inactive: 100% |
| CCCn1c(=O)c2c(nc3n2CCN3c2ccc(C)cc2)n(C)c1=O | inactive: 89% |
| COc1cccc2cc(C(=O)Nc3ccc(N4CCNCC4)cc3)c(=O)oc12 | inactive: 110% |
| Cc1ccc(NC(=O)c2cc3c(=O)n(Cc4ccco4)ccc3nc2C)cc1C | inactive: 65% |
| Cc1ccc(CN(C(=O)COc2ccc(Cl)cc2C)C2CCS(=O)(=O)C2)o1 (stereo unspecified) | inactive: 86% |
| CCOC(=O)c1c(NC(=O)c2cc(CC(C)C)on2)sc(C(C)=O)c1C | inactive: 94% |

| Compound | survival |
| --- | --- |
| O=C(COC(=O)c1ccccn1)Nc1ccccc1 | inactive: 89% |
| Cc1nc2sc(C(=O)N(C)c3ccccc3)c(NC(=O)c3ccccc3Cl)c2c(C)c1C | inactive: 72% |
| COC(=O)c1cn(C(C)C(=O)NCc2ccco2)c2ccccc12 (stereo unspecified) | inactive: 89% |
| CSc1ccc(C2c3c(oc4cc(C)cc(C)c4c3=O)C(=O)N2CCO)cc1 (stereo unspecified) | inactive: 80% |
| COc1ccc(C2C(C(=O)Nc3ccccc3OC)=C(C)Nc3c(C(=O)Nc4ccccc4)cnn32)c(OC)c1 (stereo unspecified) | inactive: 159% |
| Cc1ccc(NC(=O)c2c(C)oc3ccc(O)c(CN4CCOCC4)c23)c(C)c1 | inactive: 87% |
| CCOc1ccc(NC(=O)N(Cc2c[nH]c3ccccc23)C2CCCCCC2)cc1 | inactive: 83% |
| COc1cn(CC(=O)Nc2ccccc2)c(CN2CCCCC2)cc1=O | inactive: 74% |
| COc1ccc(CCNC(=O)CNCC2CCCO2)cc1OC (stereo unspecified) | inactive: 98% |
| Cc1ccc(OCC(=O)N(Cc2ccco2)Cc2ccco2)cc1C | inactive: 78% |
| CC(C)CCNC(=O)CCn1c(=O)c2cccn2c2cccnc21 | inactive: 88% |
| COc1ccc(CCNC(=O)Cn2cc(S(=O)(=O)Cc3ccccc3Cl)c3ccccc32)cc1OC | inactive: 69% |
| O=C(CSc1nnc(-c2ccccc2F)o1)Nc1ccccc1Cl | inactive: 113% |
| CCSc1nnc2c(n1)OC(c1ccc(C)s1)Nc1ccccc1-2 (stereo unspecified) | inactive: 62% |
| CCOc1ccccc1NC(=O)CSc1ncc(S(=O)(=O)c2ccc(C)c(C)c2)c(N)n1 | inactive: 124% |
| O=C(Nc1ccccc1C(=O)NC1CCCC1)NC1CCCC1 | inactive: 105% |
| COc1ccc(CN(Cc2ccco2)C(=O)c2cc3ccccc3oc2=O)c(OC)c1 | inactive: 105% |
| Cc1ccccc1C(=O)N1CCC(C(=O)NC2CCCCCC2)CC1 | inactive: 100% |
| O=C(CSc1nnc(-c2ccc(S(=O)(=O)N3CCOCC3)cc2)o1)c1c[nH]c2ccccc12 | inactive: 107% |
| COc1ccc(-c2noc(-c3ccc(NCC4CCCO4)c([N+](=O)[O-])c3)n2)cc1 (stereo unspecified) | inactive: 83% |
| CNC(=O)c1c(NC(=O)Cc2coc3ccc(C)cc23)sc2c1CCCC2 | inactive: 67% |
| CCc1nn(CC(=O)Nc2c(C)cccc2C)c(=O)c2cc3sccc3n12 | inactive: 88% |
